# Source: article PMC4336329 (PLoS ONE, 2015)
# The campaign covered roughly 310,000 compounds. About 14,000 (4.5%) showed an effect of 50% or more. The effect is printed as a negative number. This is one part of the list.
# Molecular target: human ether-à-go-go-related gene (hERG) potassium channel (human, UniProt Q12809)
# Assay: primary screen, population patch clamp on CHO cells stably expressing hERG
# 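Note: peak tail current of the secondary pulse compared with the same well before compound.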
# Sequence of human ether-à-go-go-related gene (hERG) potassium channel (Q12809 whole entry, looked up): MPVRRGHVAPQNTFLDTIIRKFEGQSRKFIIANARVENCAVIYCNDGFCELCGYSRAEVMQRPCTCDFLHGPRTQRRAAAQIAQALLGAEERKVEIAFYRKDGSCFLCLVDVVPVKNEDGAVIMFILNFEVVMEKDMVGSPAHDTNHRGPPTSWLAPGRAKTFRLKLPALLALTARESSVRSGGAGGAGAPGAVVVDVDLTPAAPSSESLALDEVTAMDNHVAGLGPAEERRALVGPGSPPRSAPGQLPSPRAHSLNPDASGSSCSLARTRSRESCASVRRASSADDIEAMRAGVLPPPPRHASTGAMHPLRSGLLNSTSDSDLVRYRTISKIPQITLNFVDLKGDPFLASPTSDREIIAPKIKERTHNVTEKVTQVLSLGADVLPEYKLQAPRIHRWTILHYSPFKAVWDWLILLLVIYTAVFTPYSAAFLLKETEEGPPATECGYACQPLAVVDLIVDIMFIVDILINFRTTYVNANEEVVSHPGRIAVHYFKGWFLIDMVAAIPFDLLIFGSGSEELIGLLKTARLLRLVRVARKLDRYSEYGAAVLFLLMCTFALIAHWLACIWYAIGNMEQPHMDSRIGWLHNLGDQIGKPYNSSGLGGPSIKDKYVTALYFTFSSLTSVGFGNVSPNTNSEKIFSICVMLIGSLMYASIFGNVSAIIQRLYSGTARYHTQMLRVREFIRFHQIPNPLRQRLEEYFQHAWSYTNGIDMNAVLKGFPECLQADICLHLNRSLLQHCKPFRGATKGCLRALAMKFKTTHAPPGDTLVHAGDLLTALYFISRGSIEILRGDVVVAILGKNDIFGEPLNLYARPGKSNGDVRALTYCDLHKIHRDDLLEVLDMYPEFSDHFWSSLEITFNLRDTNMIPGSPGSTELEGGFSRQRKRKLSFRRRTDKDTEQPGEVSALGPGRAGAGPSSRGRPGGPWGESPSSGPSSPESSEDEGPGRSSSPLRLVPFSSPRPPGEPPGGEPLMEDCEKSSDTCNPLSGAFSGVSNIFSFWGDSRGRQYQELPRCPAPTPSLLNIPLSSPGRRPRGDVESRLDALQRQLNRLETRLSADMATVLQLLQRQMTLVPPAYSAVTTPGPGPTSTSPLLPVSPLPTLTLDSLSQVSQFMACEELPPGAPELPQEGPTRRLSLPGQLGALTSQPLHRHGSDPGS
row,SMILES,"hERG current change (%, negative = inhibition) at 10uM [%]"
1,Cc1csc2nc(O)c(C(=O)NCc3ccc4c(c3)OCO4)c(=O)n12,-0.16
2,COc1ccc(CNC(=O)COC(=O)c2n[nH]c3ccccc23)cc1,7.27
3,CC(C)C(=O)N1CCN(S(=O)(=O)c2ccc3ccccc3c2)CC1,-10.4
4,COc1ccccc1-n1c(SCC(=O)Nc2nnc(C)s2)nc2c(c1=O)SCC2,14.1
5,CS(=O)(=O)c1ccc2nc(NC(=O)c3ccc(Cl)nc3)sc2c1,18.7
6,O=C(Nc1ccc(Cl)cc1)N1CCOCC1,13.8
7,CC(C)CC(=O)N/N=C/c1c(N)n(C)c(=O)n(C)c1=O,21.7
8,CCOC(=O)N1CCN(C(=O)CSc2nc3c([nH]c4ccccc43)c(=O)n2CC)CC1,-13.8
9,CC1=CCC(COC(=O)Nc2ccccc2)CC1 (centres unmarked),-12.2
10,O=C(COc1ccc(CO)cc1Cl)Nc1ccc(F)cc1,-5.76
11,COc1ccc(CN(C(=O)c2oc3cc(C)c(C)cc3c2C)C2CCS(=O)(=O)C2)cc1OC (centres unmarked),1.47
12,Cc1ccccc1S(=O)(=O)Cc1ccc(C(=O)NCCN(Cc2ccccc2)C(C)C)o1,-55.6
13,COC(=O)C(O)(c1ccc2c(c1)CCCN2)C(F)(F)F (centres unmarked),3.04
14,Cn1c(=O)c2c(ncn2CC(=O)Nc2ccc3c(c2)OCO3)n(C)c1=O,3.43
15,Cc1nn(CC(C)C)c(Cl)c1C(=O)NC1CCC(C)CC1 (centres unmarked),-42.8
16,CC1(C)C(=O)C2(C(=O)NCc3ccccc3)CCC1C2 (centres unmarked),12.1
17,CC(Cn1nnc2ccccc21)C(=O)O (centres unmarked),-1.46
18,COc1ccc(NC(=O)COC(=O)c2ccc3ccccc3n2)cc1,14.8
19,O=C(Nc1ccc(F)cc1)N1CCCN(c2nccc(C(F)(F)F)n2)CC1,-5.24

row,SMILES,"hERG current change (%, negative = inhibition) at 10uM [%]"
1,CN(c1cccc(Cl)c1)S(=O)(=O)c1cccc(C(=O)Nc2ccc3c(c2)CCC3)c1,10.2
2,Cc1ccsc1-c1nc(CSCC(=O)NCc2ccc3c(c2)OCO3)c(C)o1,-29.2
3,Cl.OCCCCNCc1cc(Br)ccc1OCc1ccccc1,-61.8
4,COc1cc(CCC(=O)N2CCN(c3ncccn3)CC2)cc(OC)c1OC,11.8
5,CC(C)CC(=O)NC(C)C(c1cccs1)N1CCOCC1 (centres unmarked),-0.115
6,CC(C)NC(=S)Nc1ccc(Oc2ccccc2)cc1,3.37
7,CC(C)NS(=O)(=O)c1ccc(NC(=O)C2CC3C=CC2C3)cc1 (centres unmarked),7.15
8,CNC(=O)NC(=O)C(C)N1CCN(C/C=C/c2ccccc2)CC1 (centres unmarked),-63
9,CC(C)(C)c1cc(/C=N/NC(=O)Cc2nc3ccccc3[nH]2)cc(C(C)(C)C)c1O,7.46
10,CCC1SC(C)C/C(=N/NC(N)=O)C1C (centres unmarked),-0.535
11,Cc1ccc(S(=O)(=O)N(C)C)cc1NC(=O)CSc1nnnn1-c1ccc(O)cc1,-20.9
12,Cc1ccccc1C(=O)NC(=S)Nc1ccc(Oc2ccc(Cl)cc2)cc1,11.5
13,Cn1c(COc2ccccc2)nnc1SCc1cc(=O)[nH]c2ccccc12,-23.5
14,COc1ccc(C(=O)NC(C)CCn2cccn2)cc1OC1CCN(C(C)C)CC1 (centres unmarked),15.1
15,COc1ccccc1C1(CCNC(C)c2cccs2)CCOC(C(C)C)C1 (centres unmarked),-6.82
16,COc1ccc(C(=O)Nc2cccc(NC(=O)c3ccc(OC)cc3OC)n2)c(OC)c1,24.1
17,COc1ccccc1N(CC(=O)NCc1ccco1)S(=O)(=O)c1ccc(C)cc1,7.01
18,C=CCNC(=S)N(Cc1ccccc1)Cc1ccc(F)cc1,-17.3
19,c1ccc(-c2cc(NCCN3CCCCC3)c3ccccc3n2)cc1,-44.5

row,SMILES,"hERG current change (%, negative = inhibition) at 10uM [%]"
1,COc1ccc(-c2c(C)nc(N)nc2-c2ccc(OCc3ccc(C)cc3)cc2O)cc1OC,4.25
2,CCC(=O)N/N=C(\C)CC(=O)Nc1cc(Cl)ccc1C,8.49
3,Cc1c(C(=O)O)oc2ccc(S(=O)(=O)N3CC(C)CC(C)C3)cc12 (centres unmarked),11.9
4,COCCN1CCn2c(nc3cc(NC(=O)c4cccs4)ccc32)C1,-5.84
5,CN(CC(=O)Nc1ccc(Cl)c(C(F)(F)F)c1)C(=O)C1CCCO1 (centres unmarked),-0.286
6,COc1cccc(-c2nnc(SC(C(=O)c3c[nH]c4ccccc34)c3ccccc3)n2C)c1 (centres unmarked),17.6
7,Cc1cc(O)c(CN(C)C)c2c1C(=O)/C(=C/c1ccco1)O2,3.97
8,COc1cccc(C2C(C(=O)c3sc(C)nc3C)=C(O)C(=O)N2CCN2CCOCC2)c1 (centres unmarked),10.8
9,Cc1ccc(C2C(C(=O)c3cccs3)=C(O)C(=O)N2c2nnc(C)s2)cc1 (centres unmarked),8.18
10,Cc1cccc(OCCCC(=O)Nc2ccc(S(N)(=O)=O)cc2)c1,13.8
11,O=C(Nc1ccc2ccccc2n1)c1ccc(Cl)cc1,13.1
12,CC(C)(C)c1ccc(-n2ncc3c2CCCC3NC(=O)C2=NNC(=O)CC2)cc1 (centres unmarked),-35.6
13,O=C1NC2(CCOc3ccccc32)C(=O)N1CC(=O)N(Cc1ccccc1)C1CCS(=O)(=O)C1 (centres unmarked),15.7
14,CC(C)(C)NC(=O)NC(=O)C[n+]1ccc(Cc2ccc([N+](=O)[O-])cc2)cc1.[Cl-],-5.27
15,COC(=O)Nc1ccc(S(=O)(=O)N2CCCC(C(=O)N3CCCCCC3)C2)cc1 (centres unmarked),0.43
16,CCC1SC2=NCCN2C1(O)c1ccc(Cl)cc1 (centres unmarked),-15.7
17,O=C1CC(c2ccccc2)n2nc(N3C(=O)c4ccccc4C3=O)nc2N1 (centres unmarked),-4.36
18,CSc1c(CN2CCN(C)CC2)c2ccccc2n1C.Cl,12.8
